In PubChem BioAssay AID1240 (Sanford-Burnham Center for Chemical Genomics, 2008) one finds displacement data, which are given here for 114 compounds.

The whole screen tested about 50,000 compounds, of which about 800 (1.6%) showed an effect of 50% or more. The list shows a part of the results.

The target of this assay is Bcl-2-like protein 10 (Homo sapiens) (UniProt Q9HD36). The assay can be described thus: Phenotype converters, Bcl-B/TR3 peptide binding displacement, primary biochemical FP (AID 1240).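 Further: 0% = Bcl-B with tracer peptide and DMSO and 100% = tracer peptide lacking Bcl-B.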 The note with it: GST-Bcl-B / FITC-TR3 peptide fluorescence polarization; stronger effect = higher value; compound at 3.75 mg/L. In general terms: In fluorescence polarisation assays a small probe gives low polarisation when free and higher when bound to something large.
UniProt Q9HD36, sequence (Q9HD36 whole entry, looked up): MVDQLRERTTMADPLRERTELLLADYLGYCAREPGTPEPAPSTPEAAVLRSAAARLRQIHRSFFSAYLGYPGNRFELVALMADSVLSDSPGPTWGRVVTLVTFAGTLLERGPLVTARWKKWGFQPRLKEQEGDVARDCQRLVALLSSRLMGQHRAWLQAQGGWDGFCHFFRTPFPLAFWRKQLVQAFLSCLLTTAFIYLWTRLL
As for `O=c1[nH]c2ccccc2c(=O)n1-c1ccccc1`, the displacement was -12.7%.

For the compound `O=C1NC(=O)N(c2cccc(Br)c2)C(=O)/C1=C/c1ccco1`, the displacement turned out to be 5.2%.

Regarding `N#CCCN1CN(c2ccc(Cl)cc2)CN/C1=N\[N+](=O)[O-]`, the displacement came out at 11.2%.

As to `CCOc1cc(C=C2C(=O)NC(=S)NC2=O)ccc1OCc1c(C)no[n+]1[O-]`, the displacement turned out to be 14.2%.

On to `O=C(CNS(=O)(=O)c1ccccc1)Nc1ccc(Br)cc1C(=O)c1ccccc1`, for which the displacement worked out at 12%.

As for `Cc1ccc(N2C(=O)CC(=O)N(C)C2=S)cc1`, the displacement is 10.5%.

On to `Oc1ccc(Br)cc1CN1CCN(Cc2ccccc2Cl)CC1`, for which the displacement was -11.7%.

Consider `N/C(=N\[N+](=O)[O-])N/N=C\c1ccc(-c2cccc([N+](=O)[O-])c2)o1`, for which the displacement was found to be 7.3%.

Consider `COc1ccc(C=C2C(=O)NC(=O)NC2=O)cc1OCc1ccc(Cl)cc1Cl`, for which the displacement worked out at 150%.

With `O=C1NC(=O)C(=Cc2ccccc2Cl)C(=O)N1`, the displacement was determined as 9.8%.

For `O=C1NC(=S)NC(=O)C1=Cc1ccc(OCc2ccccc2)c(OCc2ccccc2)c1`, the displacement is 9.8%.

Regarding `O=C1CC(=O)N(c2ccc(I)cc2)C(=O)N1`, the displacement was 1.4%.

`CCC1(C)CC(CCNCc2ccc(OC)c(OC)c2)(c2ccc(C)cc2)CCO1` (centres undefined): the displacement was -7.2%.

As to `COc1ccc(CN2CCN(Cc3cccc(OC)c3)CC2)cc1`, the displacement was -1%.

In the case of `CCCCCn1c(=O)c(C(=O)Nc2ccccc2Cl)c(O)c2ccccc21`, the displacement turned out to be 7.8%.

For the compound `CC(C(=O)c1ccc(Cl)cc1Cl)n1cncn1` (centres undefined), the displacement is -2.3%.

`COc1cc2c(cc1OC)CC(C)(C)[N+](C)=C2`: the displacement stood at 3.8%.

Regarding `Cc1ccc(-n2c(=O)[nH]c3ccccc3c2=O)cc1`, the displacement came to 0.3%.

Take `O=[N+]([O-])c1nonc1NCn1nnc2ccccc21`: the displacement was 16.2%.

Regarding `O=c1c2ccccc2nc(/C=C/c2ccc(Cl)cc2)n1-c1ccccc1O`, the displacement was 6.8%.

For the compound `O=Cc1cn(Cc2ccccc2F)c2ccccc12`, the displacement came to 3.2%.

Consider `CCC(C)N1CCN(Cc2ccc(OC)c(OC)c2OC)CC1` (centres undefined), for which the displacement was -1.4%.

Consider `COc1ccc(Br)cc1CN1CCN(C(=O)COc2ccc(Cl)cc2)CC1`, for which the displacement was determined as 8%.

As to `Cc1cccc(-n2c(-c3ccccc3F)nc3ccccc3c2=O)c1`, the displacement is 5.6%.

As for `COc1cccc(-n2c(/C=C/c3ccco3)nc3ccccc3c2=O)c1`, the displacement was 106%.

For the compound `COc1ccc(C2c3c(c4ccccc4oc3=O)Oc3c2c(=O)oc2ccccc32)cc1`, the displacement worked out at 16.4%.

`O=c1c2ccccc2nc(-c2ccco2)n1-c1cccnc1`: the displacement was -6.1%.

As to `Clc1ccc(CCN(Cc2ccco2)Cc2ccco2)c(Cl)c1`, the displacement was -2.6%.

Take `O=C1NC(=O)N(Cc2ccccc2)C(=O)/C1=C/c1ccc2c(c1)OCO2`: the displacement was found to be 13.8%.

Regarding `CC(Cc1ccccc1)NC(=O)NC(=O)Cc1ccccc1` (centres undefined), the displacement is 0.6%.

In the case of `Cc1nc2ccccc2c(=O)n1-c1ccc(O)cc1`, the displacement was determined as 20.5%.

Consider `O=C(CF)NC(Nc1ccc(Br)cc1)C(Cl)(Cl)Cl` (centres undefined), for which the displacement was found to be 8.3%.

As to `O=S(=O)(c1ccccc1)N1CC1c1ccccc1` (centres undefined), the displacement is 11.6%.

Regarding `O=C1NC(=O)N(c2ccc(Cl)cc2)C(=O)/C1=C\c1cc(Br)cc(Cl)c1O`, the displacement worked out at 4.8%.

Regarding `CCc1cc(C)cc(OCCOc2ccccc2C=C2C(=O)NC(=S)NC2=O)c1`, the displacement was -0.4%.

Consider `CCN1CCN(c2ccc(C(F)(F)F)cn2)CC1`, for which the displacement worked out at 12.4%.

On to `COc1ccc(CN2C(=O)NC(=O)/C(=C\c3ccoc3)C2=O)cc1`, for which the displacement was -114%.

For the compound `Cc1c(Cl)cccc1NC(=O)C1C(C)(C)C1(C)C`, the displacement was -12.5%.

Take `O=c1c2ccccc2nc(/C=C/c2ccccc2)n1-c1ccccc1[N+](=O)[O-]`: the displacement was -9%.

For the compound `CC1CN(c2ccc([N+](=O)[O-])c(N3CCOCC3)c2)CCN1` (centres undefined), the displacement turned out to be 2.5%.

Consider `CCOc1ccc(N2C(=O)NC(=O)/C(=C\c3cc(OC)c(OC)cc3[N+](=O)[O-])C2=O)cc1`, for which the displacement was 10.2%.

In the case of `O=C1NC(=S)N(c2ccc(Br)cc2)C(=O)/C1=C/c1ccc(-c2ccccc2C(=O)O)o1`, the displacement came to 19.2%.

For `COc1ccc(-c2nc3ccccc3c(=O)n2-c2cccnc2)cc1`, the displacement is -15.7%.

With `O=C1NC(=S)NC(=O)C1CCCC=C(Cl)Cl`, the displacement stood at 12.7%.

As to `CCCCCCOC(=O)C1CN1C(C)(C)CO` (centres undefined), the displacement was 0.5%.

Regarding `CN1CCN(C(=O)COc2ccc(Cl)cc2Br)CC1`, the displacement is -7.4%.

As for `CCOc1ccc(Br)cc1C=C1C(=O)NC(=S)NC1=O`, the displacement is 4.5%.

As for `O=c1c2ccccc2nc(/C=C/c2ccc3c(c2)OCO3)n1-c1cccc(O)c1`, the displacement stood at 5.1%.

Take `CCn1cc(C=C2C(=O)NC(=S)NC2=O)c2ccccc21`: the displacement is 136%.

Consider `Cc1cccc(N2C(=O)NC(=O)/C(=C/c3ccc(-c4ccc(C(=O)O)c(Cl)c4)o3)C2=O)c1`, for which the displacement is -3.3%.

Take `COc1cccc(OCC(=O)N2CCN(C)CC2)c1`: the displacement is 1.4%.

As to `CSc1ccc(CN2CCN(Cc3cc(Br)ccc3O)CC2)cc1`, the displacement is 4%.

As for `CCC1CN(C)CCC1(O)c1ccccc1` (centres undefined), the displacement was -6.1%.

As for `COc1cccc(CN2CCN(Cc3ccccc3Br)CC2)c1`, the displacement amounted to 5.2%.

In the case of `Cc1cc([N+](=O)[O-])nn1CC(=O)Nc1ccc(Cl)cc1C(=O)c1ccccc1`, the displacement is 4.2%.

In the case of `Cc1ccc(C=C2C(=O)N(C)C(=O)N(C)C2=O)o1`, the displacement was determined as 20.7%.

With `CC(=O)c1ccc(OC(NC(=O)c2cccc(C)c2)C(Cl)(Cl)Cl)cc1` (centres undefined), the displacement was found to be 11.7%.

For the compound `COc1ccc(Cl)cc1N=Cc1c(O)n(C)c(=O)n(C)c1=O`, the displacement is 32.2%.

In the case of `CCN1C(=O)/C(=C/c2ccoc2)C(=O)NC1=S`, the displacement is -2.4%.

As for `O=C1NC(=S)N(c2cccc(Br)c2)C(=O)/C1=C/c1ccco1`, the displacement amounted to 39%.

`CCOc1ccc(N2C(=O)/C(=C/c3ccc(C)o3)C(=O)NC2=S)cc1`: the displacement is -8.7%.

For `CC12CCC(O)CC1CCC1C2CCC2(C)C1CCC2(C)O` (centres undefined), the displacement amounted to 5.1%.

With `CCOc1ccccc1CN(CCc1ccc2c(c1)OCO2)Cc1ccc(F)c(F)c1`, the displacement was -15.5%.

Regarding `COC1CCCCC1NCCc1ccc(Cl)cc1Cl` (centres undefined), the displacement stood at 13.2%.

As to `CCOC(=O)c1ccc2c(c1)n(Cc1ccccc1)c(C)[n+]2CC`, the displacement was -14.9%.

For the compound `COc1cc(OC)cc(C(=O)Nc2ccc([N+](=O)[O-])cc2C(=O)c2ccccc2)c1`, the displacement was -0.5%.

Take `O=C(COc1ccc2ccccc2c1)N1CCN(CCCc2ccccc2)CC1`: the displacement turned out to be 12.9%.

For `O=C(CN1CCOCC1)Nc1ccc(Br)cc1C(=O)c1ccccc1Cl`, the displacement was -4%.

With `CCC(CC)N1CCN(Cc2ccc(OC)c(OC)c2OC)CC1`, the displacement is -12%.

Take `O=C1NC(=O)N(c2ccc(Cl)cc2)C(=O)/C1=C/c1ccc(Br)o1`: the displacement stood at 18.9%.

On to `COc1ccc(NC2=NCC(C)S2)cc1` (centres undefined), for which the displacement was -18.5%.

On to `CC1=[N+]([O-])C(C(=O)c2ccccc2)N(O)C1(C)C` (centres undefined), for which the displacement is 10.9%.

With `CC1(C)C(C(=O)Nc2ccc(Br)cc2)C1(C)C`, the displacement is -2.9%.

In the case of `O=C(Cn1c[n+]([N-][N+](=O)[O-])cn1)Nc1ccc([N+](=O)[O-])cc1`, the displacement stood at 16.4%.

As to `O=C(ON1CC1(C(F)(F)F)C(F)(F)F)c1ccccc1` (centres undefined), the displacement was found to be 3.2%.

With `CCCCCCC(C)CCCC1C(=O)NC(=O)NC1=O` (centres undefined), the displacement came to 5%.

In the case of `O=[N+]([O-])c1ccc(CNCCc2ccc(F)cc2)cc1`, the displacement was 12.4%.

For `Cc1ccc(-n2c(C)nc3ccccc3c2=O)cc1Cl`, the displacement is -11%.

In the case of `Nc1ccc(Br)cc1C(=O)c1ccccc1F`, the displacement worked out at 14.7%.

In the case of `CC(C)N1CCN(c2nc3ncnc(N)c3[nH]2)CC1`, the displacement is 6.8%.

For `O=C(CN1CCCCC1)NCC(=O)Nc1ccc(Br)cc1C(=O)c1ccccc1`, the displacement was -17.4%.

`Cc1ccccc1-n1c(CN2C(=O)c3ccccc3C2=O)nc2ccccc2c1=O`: the displacement was -9.6%.

Consider `CCN(CC)CC(=O)Nc1ccc(Cl)cc1C(=O)c1ccccc1`, for which the displacement is 19.7%.

Turning to `COc1ccccc1-n1c(/C=C\c2ccccc2[N+](=O)[O-])nc2ccccc2c1=O`, the displacement was -1.5%.

On to `CCOc1cc(C)cc2oc(=O)c3c(c12)CCC3`, for which the displacement is -1.5%.

`O=C1/C(=C/c2ccccn2)N2CCC1CC2`: the displacement worked out at 16.6%.

With `COc1cccc(-n2c(Cc3ccccc3)nc3ccccc3c2=O)c1`, the displacement was 7.6%.

As for `Cc1ccccc1-n1c(/C=C/c2ccco2)nc2ccccc2c1=O`, the displacement is -50.3%.

For `CC(C)(C)c1ccc(OCCOc2cccc(C=C3C(=O)NC(=S)NC3=O)c2)cc1`, the displacement is -2.5%.

With `O=P(Oc1ccccc1)(Oc1ccccc1)OC1CCS(=O)(=O)C1` (centres undefined), the displacement is 1.6%.

On to `Cc1ccccc1-n1c(/C=C/c2ccc(Cl)cc2)nc2ccccc2c1=O`, for which the displacement was -10.4%.

On to `C=CCN1C(=O)NC(=O)/C(=C/c2ccc(-c3ccc(C(=O)OCC)cc3)o2)C1=O`, for which the displacement came to 36.5%.

Regarding `CN1C(=O)NC(=O)/C(=C/c2ccc(-c3ccc([N+](=O)[O-])cc3Br)o2)C1=O`, the displacement was -9.1%.

Regarding `Nc1ccc(Oc2ccc(N)cc2)cc1`, the displacement is -4.7%.

For `Cc1ccc(-n2c(/C=C3/C(=O)Nc4ccccc43)nc3ccccc3c2=O)cc1`, the displacement was -4.8%.

On to `O=C1NC(=O)C(=Cc2ccc(-c3cc([N+](=O)[O-])ccc3O)o2)C(=O)N1`, for which the displacement was found to be 109%.

For `Cc1cc(OC(C)C)c2c3c(c(=O)oc2c1)CCC3`, the displacement is -1.9%.

`CCOP(=O)(OCC)C(NC(=O)c1ccc(Cl)cc1)C(Cl)(Cl)Cl` (centres undefined): the displacement came to 12.4%.

For `COc1ccc(N2C(=O)NC(=O)/C(=C/c3cc4c(cc3Cl)OCO4)C2=O)cc1`, the displacement was found to be 81.5%.

For the compound `Cc1ccc(C2c3c(c4ccccc4oc3=O)Oc3c2c(=O)oc2ccccc32)cc1`, the displacement was 5.1%.

On to `COc1ccc(-n2c(-c3cccnc3)nc3ccccc3c2=O)cc1`, for which the displacement is -10.6%.

Take `COc1ccccc1CC(=O)N1CCN(C)CC1`: the displacement is -2.1%.

Turning to `CCC(CC)NCc1c[nH]c2ccccc12`, the displacement stood at 5.2%.

On to `O=C(c1ccccc1)c1cc(Cl)ccc1NC(=O)C1COc2ccccc2O1` (centres undefined), for which the displacement was -23.8%.

On to `Cc1ccc(NC(=O)c2nc[nH]c2C(=O)Nc2ccc(Br)cc2C(=O)c2ccccc2)cc1`, for which the displacement is 6.6%.

`COc1ccc(-c2nc3ccccc3c(=O)n2-c2cccc(C)n2)cc1`: the displacement is -3.7%.

Consider `Cc1ccccc1CN1CCN(C(=O)COc2ccc(Cl)cc2)CC1`, for which the displacement stood at 10%.

For `CC(C)C12CN3CCN(CC(C3)C1O)C2` (centres undefined), the displacement was 5.8%.

For `COc1ccc(CCNCc2cccnc2)cc1`, the displacement was determined as 24%.

Regarding `COc1ccc(CCNCc2ccc(Cl)cc2)cc1`, the displacement was found to be 9.7%.

As to `CCN1C(=O)/C(=C/c2ccc(OC)c3ccccc23)C(=O)NC1=S`, the displacement was found to be 9.5%.

Turning to `CN1CCCC1C(O)(c1ccccc1)c1ccccc1` (centres undefined), the displacement was found to be 9%.

Turning to `COc1ccc(CCNCc2ccccc2[N+](=O)[O-])cc1OC`, the displacement worked out at 2.3%.

For `CCCCn1c(=O)c(C(=O)Nc2ccc(OC)cc2)c(O)c2ccccc21`, the displacement was found to be 7.8%.
